Reference: the supplement of paper PMC10037445
Whole data set: some 2,900 compounds, median “NF-kB SEAP reporter activity, fold change vs agonist alone” near 0.99, cut for the highest 2% near 2.6. The list shows a part of the results.

Legend:
[1] = test system: RAW-Dual; assay: NF-kB SEAP reporter activity, fold change vs agonist alone; cytotoxicity flag (confluency mask): not cytotoxic; higher = enhanced NF-kB activity
Summary of the method: (§1)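 After 50 nL of library stock was delivered by pin tool to RAW-Dual macrophages (50,000 cells/well, DMEM, 384-well plates), a PRR agonist was added 1 h later and the plates were kept at 37 °C, 5% CO2. Twenty hours later, IRF was read from supernatant by QuantiLuc luminescence and NF-κB by QuantiBlue absorbance at 620 nm. Reporter activity is stated as fold change over agonist-alone wells. Wells with IncuCyte confluency under 70% of agonist controls in both mask sets were counted as cytotoxic.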

[2] = test system: RAW-Dual; assay: NF-kB SEAP reporter activity, fold change vs agonist alone; higher = enhanced NF-kB activity
Summary of the method: as §1

[3] = test system: RAW-Dual; assay: NF-kB SEAP reporter activity, fold change vs agonist alone; cytotoxicity flag (confluency mask): cytotoxic (confluency <70% of control); higher = enhanced NF-kB activity
Summary of the method: as §1

[4] = agonist: ODN 1826 (TLR9) 0.5 ug/mL
[5] = agonist: Pam2CSK4 (TLR2/6) 0.1 ug/mL
[6] = agonist: Pam3CSK4 (TLR2/1) 0.1 ug/mL
[7] = library stock concentration (final ~1000-fold dilution): 10 mM, cytotoxicity flag (confluency mask): not cytotoxic, agonist: Imiquimod (TLR7) […]
[8] = library stock concentration (final ~1000-fold dilution): 10 mM, cytotoxicity flag (confluency mask): not cytotoxic, agonist: MPLA (TLR4) […]

Cl.Cl.c1ccc(C2CC2NC2CCNCC2)cc1 (centres undefined) (library stock concentration (final ~1000-fold dilution): 10 mM)
NF-kB SEAP reporter activity ([1]; agonist: LPS (TLR4) 0.1 ug/mL): 0.855 | NF-kB SEAP reporter activity [1, 4]: 0.541 | NF-kB SEAP reporter activity [1, 5]: 0.831 | NF-kB SEAP reporter activity [1, 6]: 1.31

Cl.Cl.c1ccc(C2CC2NC2CCNCC2)cc1 (centres undefined)
NF-kB SEAP reporter activity [2, 7]: 1.05 | NF-kB SEAP reporter activity [2, 8]: 1

CN1C2CCC1CC(OC(=O)C(CO)c1ccccc1)C2.CN1C2CCC1CC(OC(=O)C(CO)c1ccccc1)C2.O.O=S(=O)(O)O (centres undefined)
NF-kB SEAP reporter activity [2, 7]: 0.838 | NF-kB SEAP reporter activity [2, 8]: 0.986

CN1C2CCC1CC(OC(=O)C(CO)c1ccccc1)C2.CN1C2CCC1CC(OC(=O)C(CO)c1ccccc1)C2.O.O=S(=O)(O)O (centres undefined) (library stock concentration (final ~1000-fold dilution): 10 mM)
NF-kB SEAP reporter activity ([1]; agonist: LPS (TLR4) 0.1 ug/mL): 0.923 | NF-kB SEAP reporter activity [1, 4]: 0.83 | NF-kB SEAP reporter activity [1, 5]: 0.79 | NF-kB SEAP reporter activity [1, 6]: 1.05

Br.C[N+]1([O-])C2CC(OC(=O)C(CO)c3ccccc3)CC1C1OC12.O (centres undefined) (library stock concentration (final ~1000-fold dilution): 10 mM)
NF-kB SEAP reporter activity ([1]; agonist: LPS (TLR4) 0.1 ug/mL): 0.936 | NF-kB SEAP reporter activity [1, 4]: 0.963 | NF-kB SEAP reporter activity [1, 5]: 1.05 | NF-kB SEAP reporter activity [1, 6]: 0.659

Br.C[N+]1([O-])C2CC(OC(=O)C(CO)c3ccccc3)CC1C1OC12.O (centres undefined)
NF-kB SEAP reporter activity [2, 7]: 0.911 | NF-kB SEAP reporter activity [2, 8]: 1.07

BrC1C(Br)C(Br)C(Br)C(Br)C1Br (centres undefined) (library stock concentration (final ~1000-fold dilution): 2 mM)
NF-kB SEAP reporter activity ([1]; agonist: LPS (TLR4) 0.1 ug/mL): 1.01 | NF-kB SEAP reporter activity [1, 4]: 0.796 | NF-kB SEAP reporter activity [1, 5]: 0.716 | NF-kB SEAP reporter activity [1, 6]: 0.764

BrC1C(Br)C(Br)C(Br)C(Br)C1Br (centres undefined)
NF-kB SEAP reporter activity ([2]; library stock concentration (final ~1000-fold dilution): 2 mM, cytotoxicity flag (confluency mask): not cytotoxic, agonist: Imiquimod (TLR7) […]): 0.613 | NF-kB SEAP reporter activity ([2]; library stock concentration (final ~1000-fold dilution): 2 mM, cytotoxicity flag (confluency mask): not cytotoxic, agonist: MPLA (TLR4) […]): 0.955

c1cc2c(cc1C1OCC3C(c4ccc5c(c4)OCO5)OCC13)OCO2 (centres undefined)
NF-kB SEAP reporter activity [2, 7]: 0.914 | NF-kB SEAP reporter activity [2, 8]: 1.01

c1cc2c(cc1C1OCC3C(c4ccc5c(c4)OCO5)OCC13)OCO2 (centres undefined) (library stock concentration (final ~1000-fold dilution): 10 mM)
NF-kB SEAP reporter activity ([1]; agonist: LPS (TLR4) 0.1 ug/mL): 1.34 | NF-kB SEAP reporter activity [1, 4]: 0.823 | NF-kB SEAP reporter activity [1, 5]: 0.803 | NF-kB SEAP reporter activity [1, 6]: 1.03

CCC1(c2cccc(O)c2)CCCCN(C)C1.Cl (centres undefined)
NF-kB SEAP reporter activity [2, 7]: 0.945 | NF-kB SEAP reporter activity [2, 8]: 0.95

CCC1(c2cccc(O)c2)CCCCN(C)C1.Cl (centres undefined) (library stock concentration (final ~1000-fold dilution): 10 mM)
NF-kB SEAP reporter activity ([1]; agonist: LPS (TLR4) 0.1 ug/mL): 0.882 | NF-kB SEAP reporter activity [1, 4]: 0.856 | NF-kB SEAP reporter activity [1, 5]: 0.889 | NF-kB SEAP reporter activity [1, 6]: 1.05

CCC1(O)C(=O)OCc2c1cc1n(c2=O)Cc2cc3ccccc3nc2-1 (centres undefined) (library stock concentration (final ~1000-fold dilution): 2 mM)
NF-kB SEAP reporter activity ([1]; agonist: LPS (TLR4) 0.1 ug/mL): 4.12

C=CC1CN2CCC3(C(=O)Nc4ccccc43)C2CC1/C(=C\OC)C(=O)OC (centres undefined)
NF-kB SEAP reporter activity [2, 7]: 0.91 | NF-kB SEAP reporter activity [2, 8]: 1.1

C=CC1CN2CCC3(C(=O)Nc4ccccc43)C2CC1/C(=C\OC)C(=O)OC (centres undefined) (library stock concentration (final ~1000-fold dilution): 10 mM)
NF-kB SEAP reporter activity ([1]; agonist: LPS (TLR4) 0.1 ug/mL): 0.951 | NF-kB SEAP reporter activity [1, 4]: 0.904 | NF-kB SEAP reporter activity [1, 5]: 0.882 | NF-kB SEAP reporter activity [1, 6]: 0.928

c1ccc2c(c1)[I+]c1ccccc1-2 (library stock concentration (final ~1000-fold dilution): 10 mM)
NF-kB SEAP reporter activity ([1]; agonist: LPS (TLR4) 0.1 ug/mL): 0.512 | NF-kB SEAP reporter activity [1, 4]: 0.404 | NF-kB SEAP reporter activity [1, 5]: 0.193 | NF-kB SEAP reporter activity [1, 6]: 0.278 | NF-kB SEAP reporter activity ([3]; agonist: LPS (TLR4) 0.1 ug/mL): 0.328 | NF-kB SEAP reporter activity [3, 4]: 0.428 | NF-kB SEAP reporter activity [3, 5]: 0.176 | NF-kB SEAP reporter activity [3, 6]: 0.338

c1ccc2c(c1)[I+]c1ccccc1-2
NF-kB SEAP reporter activity ([2]; library stock concentration (final ~1000-fold dilution): 10 mM, cytotoxicity flag (confluency mask): cytotoxic (confluency <70% of control), agonist: Imiquimod (TLR7) […]): 0.708 | NF-kB SEAP reporter activity ([2]; library stock concentration (final ~1000-fold dilution): 10 mM, cytotoxicity flag (confluency mask): cytotoxic (confluency <70% of control), agonist: MPLA (TLR4) […]): 1.14 | NF-kB SEAP reporter activity [2, 7]: 0.411 | NF-kB SEAP reporter activity [2, 8]: 1.16

CCC1=CC2CN3CCc4c([nH]c5ccccc45)C(C(=O)OC)(C2)C13 (centres undefined) (library stock concentration (final ~1000-fold dilution): 10 mM)
NF-kB SEAP reporter activity ([1]; agonist: LPS (TLR4) 0.1 ug/mL): 1.04 | NF-kB SEAP reporter activity [1, 4]: 1.06 | NF-kB SEAP reporter activity [1, 5]: 0.935 | NF-kB SEAP reporter activity [1, 6]: 1.03

CCC1=CC2CN3CCc4c([nH]c5ccccc45)C(C(=O)OC)(C2)C13 (centres undefined)
NF-kB SEAP reporter activity [2, 7]: 1.03 | NF-kB SEAP reporter activity [2, 8]: 1.11

CCC1(c2ccc(N)cc2)CCC(=O)NC1=O (centres undefined) (library stock concentration (final ~1000-fold dilution): 10 mM)
NF-kB SEAP reporter activity ([1]; agonist: LPS (TLR4) 0.1 ug/mL): 1.04 | NF-kB SEAP reporter activity [1, 4]: 1.03 | NF-kB SEAP reporter activity [1, 5]: 1.02 | NF-kB SEAP reporter activity [1, 6]: 1.1

CCC1(c2ccc(N)cc2)CCC(=O)NC1=O (centres undefined)
NF-kB SEAP reporter activity [2, 7]: 0.947 | NF-kB SEAP reporter activity [2, 8]: 1.03

Cl.N=C(N)NN (library stock concentration (final ~1000-fold dilution): 10 mM)
NF-kB SEAP reporter activity ([1]; agonist: LPS (TLR4) 0.1 ug/mL): 1.04 | NF-kB SEAP reporter activity [1, 4]: 1.23 | NF-kB SEAP reporter activity [1, 5]: 0.999 | NF-kB SEAP reporter activity [1, 6]: 0.942

Cl.N=C(N)NN
NF-kB SEAP reporter activity [2, 7]: 1.1 | NF-kB SEAP reporter activity [2, 8]: 1.33

CCC12C=CCN3CCC4(c5ccc(OC)cc5N(C)C4C(O)(C(=O)OC)C1OC(C)=O)C32 (centres undefined) (library stock concentration (final ~1000-fold dilution): 10 mM)
NF-kB SEAP reporter activity ([1]; agonist: LPS (TLR4) 0.1 ug/mL): 1.1 | NF-kB SEAP reporter activity [1, 4]: 0.985 | NF-kB SEAP reporter activity [1, 5]: 0.859 | NF-kB SEAP reporter activity [1, 6]: 1.02

CCC12C=CCN3CCC4(c5ccc(OC)cc5N(C)C4C(O)(C(=O)OC)C1OC(C)=O)C32 (centres undefined)
NF-kB SEAP reporter activity [2, 7]: 0.713 | NF-kB SEAP reporter activity [2, 8]: 0.992

Br.NCCc1cc(O)c(O)cc1O (library stock concentration (final ~1000-fold dilution): 10 mM)
NF-kB SEAP reporter activity ([1]; agonist: LPS (TLR4) 0.1 ug/mL): 1.94 | NF-kB SEAP reporter activity [1, 4]: 0.853 | NF-kB SEAP reporter activity [1, 5]: 1.06 | NF-kB SEAP reporter activity [1, 6]: 0.83

Br.NCCc1cc(O)c(O)cc1O
NF-kB SEAP reporter activity [2, 8]: 1.08
